Results taken from PubChem BioAssay (NCI).
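Exposure lasted 48 hours, with cells grown in 96-well plates and compounds tested at five concentrations. TGI marks complete inhibition of growth.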 Not every entry of the source has a single result; some have several. The other results are left out here. The source may hold further records. A record mostly stands for its own series of concentrations, which the source does not state; some values may only mark the edge of a range.

Key:
Assay in all cases: inhibition of tumour cell growth, NCI panel, 48 h
[1] = tested on: HOP-18 NSCLC
[2] = tested on: M14 melanoma
[3] = tested on: MOLT-4 leukemia
[4] = tested on: NCI-H23 lung
[5] = tested on: OVCAR-4 ovarian
[6] = tested on: SK-MEL-2 melanoma
[7] = tested on: SNB-19 CNS
[8] = tested on: XF 498 CNS
[9] = tested on: CCRF-CEM leukemia

SMILES	TGI [1]	TGI [2]	TGI [3]	TGI [4]	TGI [5]	TGI [6]	TGI [7]	TGI [8]	TGI [9]
COc1cccc2c1C(=O)c1c(O)c3c(c(O)c1C2=O)C[C@@](O)(C(=O)CO)CC3OC1CC(NCCCC(OC(C)=O)OC(C)=O)C(O)C(C)O1 (stereo not given in full)	9.92 nM and 482 nM	3.77 nM and 0.211 nM	7.72 nM and > 1 µM	4.55 nM and 0.231 nM	4.65 nM and 102 nM	3.52 nM and 0.177 nM	8.81 nM and > 1 µM	4.12 nM and 0.357 nM	–
COc1cccc2c1C(=O)c1c(O)c3c(c(O)c1C2=O)CC(O)(C(=O)CO)CC3OC1CC(N)C(O)C(C)O1 (stereo not given)	–	–	75 µg/mL and 15 µg/mL	–	–	–	–	–	8.42 µg/mL and 64.1 µg/mL
